Results published in PubChem BioAssay AID493208 (National Center for Advancing Translational Sciences (NCATS), 2011).
About 340 (0.77%) of roughly 44,000 compounds were called active. About 5% were inconclusive and are not listed. The call rests on the fitted dose curve; in most records, active means well fitted inhibition curve with a large enough effect; inconclusive means small, poorly fitted or top-dose-only effect; inactive means flat fitted curve, though single readings scatter. This is one part of the list.

test: Acumen qHTS Assay for Inhibitors of the mTORC1 Signaling Pathway in MEF (Tsc2-/-, p53-/-) Cells: Sytravon; details: phospho-rpS6 immunofluorescence/PI, 24 h; series mostly up to 38.3 µM; activity change, negative = inhibition: at the top concentration;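 further: plate controls were DMSO for no effect and rapamycin for full effect; nearly all actives have a fitted effect of over 50% in size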
Summary of the method: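 Readout is phospho-S6 Alexa 488 signal normalized to PI per well, reported as % active cells with thresholds set from rapamycin (7.5 nM) and DMSO controls. Cells: Tsc2-/-, p53-/- MEFs, 24 hrs compound at 37 C; PI cell number serves as viability.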

Activity change, negative = inhibition, inactive:
COc1ccc(CN2C(=O)c3ccccc3C2C(=O)NCCc2ccccc2)c(OC)c1 (stereo unspecified) -1.59%
CC(C)CCNC(=O)CN1N=C(c2ccc(Cl)cc2)CCC1=O -16.7%
Cc1cn2c(=O)cc(COC(=O)COc3ccccc3C)nc2s1 -15.8%
CCOC(=O)c1c(C)[nH]c(CCC(=O)NCc2ccc(N(C)C)cc2)c1C 8.26%
O=c1cc(-c2ccccc2)n2c(SCc3ccc(F)cc3)nnc2[nH]1 -2.36%
O=c1oc2ccccc2cc1-c1cn2cc(Cc3ccc(Cl)cc3)sc2n1 -21%
CCN(Cc1ccccc1)C(=O)Cn1c(=O)n(-c2ccc(C)c(C)c2)c(=O)c2c(C)c(C)sc21 -15.6%
COc1ccc(CNc2oc(-c3ccc(COc4ccccc4C)o3)nc2C#N)cc1 -0.335%
O=C(Nc1cccc(C(F)(F)F)c1)c1cc2ccc3cccnc3c2[nH]1 3.33%
CCn1cc(C(=O)N2CCN(c3ccccc3F)CC2)c(=O)c2cc(S(=O)(=O)N(C)C)ccc21 -3.45%
Cc1ccc(NC(=O)CN2C(=O)CCSc3ccc(S(=O)(=O)N4CCCC4)cc32)cc1C 1.77%
CC1=C(c2ccc(C)cc2)S(=O)(=O)NC1=NCCCN1CCN(c2ccc(F)cc2)CC1 -10.4%
Cc1ccc(C)c(OC(=O)CSc2nnc(CNC(=O)c3ccccc3)o2)c1 0.571%
Cc1cc2oc(C(=O)Nc3ccc(S(=O)(=O)N4CCCCCC4)cc3)cc(=O)c2cc1C -6.02%
CCN(CC)c1ccc(NS(=O)(=O)c2cc3[nH]c(=O)c(=O)[nH]c3cc2C)c(C)c1 -6.1%
CCN(CC)c1ccc(NC(=O)CSc2nc(-c3cccs3)cc(C(F)(F)F)n2)cc1 -13.7%
Cc1ccc(NC(=O)Nc2nnc(N(C)Cc3ccccc3)s2)c(C)c1 -9.54%
CCOc1ccc(-n2nc3ccc(NC(=O)COc4ccc(OC)cc4)cc3n2)cc1 3.71%
COC(=O)c1ccc(C2C(C(=O)Nc3ccccc3)=C(C)Nc3nc4ccccc4n32)cc1 (stereo unspecified) 0.117%
CC(=O)N1CCc2c(sc3nc(SCC(C)C)n(-c4ccc(F)c(Cl)c4)c(=O)c23)C1 -26.7%
CCCSc1ncc(Cl)c(C(=O)Nc2c(C(=O)Nc3ccc(C)cc3)oc3ccccc23)n1 1.72%
COc1cc(C)cc2oc(=O)c(CC(=O)NCc3cccc(Cl)c3)c(C)c12 6.69%
CCc1nc(Oc2cccc(F)c2)c2oc3ccccc3c2n1 3.51%
CCN(CC)c1ccc(-c2nc(-c3ccccc3C)no2)cc1[N+](=O)[O-] -1.39%
CC1=C(C(=O)Nc2ccccc2)C(c2cccn2C)n2ncnc2N1 (stereo unspecified) 2.09%
Cc1ccc(C)c(Cn2c(C3CC(=O)N(c4ccccc4C)C3)nc3ccccc32)c1 (stereo unspecified) -10.8%
Cc1ccc(Nc2nc(C)nc(N)c2S(=O)(=O)c2ccccc2)cc1 -0.783%
COc1ccc(Cn2c(=O)c3oc4ccccc4c3n(CC(=O)Nc3ccc(F)cc3F)c2=O)cc1 -2.33%
O=C(NCCc1ccccc1Cl)c1ccc2c(c1)nc1n2CCCCC1 0.179%
Cc1cc(NC(=O)C2CCN(S(=O)(=O)c3ccc(Br)s3)CC2)ccc1Br -0.822%
Cc1ccc(Cl)cc1N1CCN(Cc2nnc(-c3ccc4c(c3)OCO4)o2)CC1 -3.7%
Cc1ccc(CNC(=O)CSc2n[nH]c(-c3ccc(F)cc3)n2)cc1 -10.2%
O=S(=O)(c1ccc2nc(N3CCN(c4cccc(Cl)c4)CC3)ccc2c1)N1CCCCC1 2.85%
Cc1ccc2c(=O)cc(C(=O)Nc3sc4c(c3C(=O)NCc3cccnc3)CCCC4)oc2c1C -6.18%
Fc1ccc(-c2noc3ncnc(NCCCN4CCN(c5ccccc5)CC4)c23)cc1 -6.99%
O=c1oc2c(CN3CCN(CCO)CC3)c(O)ccc2cc1-c1ccccc1 8.33%
COc1ccc(Cn2ccc3nc(C)c(C(=O)NCc4ccc(F)cc4)cc3c2=O)cc1 -20.3%
COc1cccc(NC(=O)CC2NCCNC2=O)c1 (stereo unspecified) 0.545%
COc1ccc(C(=O)NCC(c2ccc(N(C)C)cc2)N2CCc3ccccc32)c(OC)c1 (stereo unspecified) 0%
CCc1cc(C(=O)Nc2cnn(Cc3ccccc3C)c2)no1 5.68%
COc1ccc(S(=O)(=O)NCC(c2ccco2)N2CCOCC2)cc1OC (stereo unspecified) -3.95%
Cc1ccc(NC(=O)CCc2c(C)nc3cc(-c4ccccc4)nn3c2C)cc1F 1.9%
COc1ccc(-c2nc3c(C#N)c[nH]n3c2NC2CCCC2)c(OC)c1 3.29%
COCCCNc1oc(-c2ccc(COc3ccc(Cl)cc3)o2)nc1C#N -1.51%
COc1ccc(CNC(=O)C2CCN(c3nc4ccccc4[nH]3)CC2)cc1OC -14.7%
O=C(Nc1sc2c(c1C(=O)NCC1CCCO1)CCC2)c1cc(=O)c2ccccc2o1 (stereo unspecified) 7.65%
CCCCCNC(=O)CCCCCn1c(=O)[nH]c2ccsc2c1=O 2.63%
CCn1cc(C(=O)OCC(=O)Nc2cccc(C(C)=O)c2)c(=O)c2ccc(C)nc21 2.17%
CCOC(=O)c1c(S(=O)(=O)N2CCCC(C(=O)Nc3cccc(C)n3)C2)c(C)n(C)c1C (stereo unspecified) -4.84%
COc1ccc(Cn2c(=O)c3oc4ccccc4c3n(Cc3ccc(Cl)cc3)c2=O)cc1 -2.8%
CCOC(=O)c1c(C)[nH]c(C)c1S(=O)(=O)N1CCCC(C(=O)N2CCN(c3ccccc3)CC2)C1 (stereo unspecified) -2.06%
CCOCCc1nn2c(=O)cc(COC(=O)C3CCCCC3)nc2s1 -13%
Cc1cccn2c(=O)c3cc(C(=O)NC(C)c4ccccc4)c(=N)n(CCCO)c3nc12 (stereo unspecified) -13.8%
Cc1ccc2c(=O)cc(C(=O)Nc3cccc(C(F)(F)F)c3)oc2c1C 4.98%
COC(=O)c1ccc(OCC2c3cc(OC)c(OC)cc3CCN2C(=O)c2ccc(F)cc2)cc1 (stereo unspecified) 8.75%
O=C(Cn1nnc(-c2ccccc2Cl)n1)Nc1ccc(Br)cc1 8.76%
O=C(NCCCN1CCN(c2ccc(F)cc2)CC1)c1ccc2nc(Cc3ccccc3)oc2c1 -3.91%
Cc1ccccc1Cn1c(CN2CCC(C(=O)NCCc3ccccc3)CC2)cc2ccccc21 -2.58%
CCN(CC)CCCNC(=O)c1nn(C)c2c1CS(=O)(=O)c1ccccc1-2 2.74%
CCC(=O)Nc1cccc(C(=O)OCc2cc(=O)n3nc(CC)sc3n2)c1 0%
COc1ccc2c(c1)c1c(c(=O)n(CCc3ccccc3)c(=O)n1Cc1ccc(F)cc1)n2C 2.75%
COc1ccc(NC(=O)c2c(-c3ccc(C)cc3)nnc3ccccc23)c(OC)c1 -2.84%
CCN(CC)c1nc2ccccc2nc1C(=O)Nc1cccc(C(C)=O)c1 -12.2%
Cc1ccc2sc(NC(=O)c3ccc4c(c3)OCCO4)nc2c1C -1.28%
COc1ccc2c(c1)c1c(c(=O)n(-c3ccc(F)c(Cl)c3)c(=O)n1Cc1ccccc1C)n2C -7.11%
CCSC1=NC2(CCN(C(=O)NC3CCCCC3)CC2)N=C1c1ccc(Cl)cc1 -0.278%
Cc1ccc(NC(=O)c2sc3nc4c(cc3c2N)CN(Cc2ccccc2)CC4)cc1 -9.73%
CCN1C(=O)c2ccccc2Sc2ccc(NC(=O)c3ccc(Cl)cc3)cc21 -1.86%
Cc1oc2ncn(C)c(=O)c2c1C(=O)N1CCN(c2ccccc2F)CC1 -12.4%
CCc1nn(Cc2ccc(Cl)cc2)c(=O)c2cc3cc(C)ccc3n12 -0.219%
Cc1cccc(NS(=O)(=O)c2ccc3c(c2)C(C)(C)C(=O)N3C)c1 -8.2%
O=C(CN1C(=O)COc2ccc(S(=O)(=O)N3CCCC3)cc21)N1CCN(c2ccccc2)CC1 0.371%
O=C(CSc1ncc2c(n1)-c1ccc(Cl)cc1N(Cc1ccccc1)S2(=O)=O)Nc1ccc(F)c(F)c1 -10%
COc1ccc2c(Sc3ccccc3)c(C(=O)NCCc3ccc(Cl)cc3)[nH]c2c1 -3.92%
CCOC(=O)C1CCCN(CC(=O)N2CCCc3c2c(=O)oc2ccc(OCc4ccccc4)cc32)C1 (stereo unspecified) -7.26%
COc1cc(OC)cc(C(=O)Nc2cc(-c3nc4cc(Cl)ccc4o3)ccc2Cl)c1 2.29%
CCN1CCN(CCCNC(=O)c2cc3c(s2)-c2ccccc2OC3)CC1 -19.3%
O=C(NCc1ccc2c(c1)CCN2C(=O)c1ccccc1)c1cc2ccccc2[nH]1 -3.83%
CCc1ccc(NC(=O)c2sc3ncnc(N(C)C4CCCCC4)c3c2C)cc1 0.686%
CC(=O)C1=C(c2ccc(C)cc2)N(C(C)=O)n2c(nnc2C2CCCCC2)S1 0.263%
CCOc1ccc(C2C(C(N)=O)=C(C)Nc3nc(SCc4ccccc4)nn32)cc1 (stereo unspecified) 2.97%
CCCCNC(=O)CSc1nc2ccccc2nc1Cc1ccc(C)cc1 0.909%
COc1cccc(CN2C(=O)c3ccccc3Sc3ccc(C(=O)N(C)Cc4ccccc4)cc32)c1 -10.7%
O=C(c1cccs1)c1cn(CCOc2ccccc2F)c2ccccc12 3.62%
COc1cccc2cc(-c3nc(Nc4cccc(C)c4)sc3C)c(=O)oc12 -11.7%
CC(C)c1ccc(S(=O)(=O)c2nnn3c2nc(N2CCN(C)CC2)c2sccc23)cc1 -8.53%
COc1cc(C2c3c(-c4ccccc4O)n[nH]c3C(=O)N2CCO)ccc1OCc1ccccc1 (stereo unspecified) -2.89%
COc1cccc(CNC(=O)c2ccc3nc(-c4ccc(F)cc4)c(-c4ccc(F)cc4)nc3c2)c1 -6.76%
CCOC(=O)c1ccccc1NC(=O)c1c2c(nc3ccccc13)C(=O)N(C1CCCCC1)C2 0.0596%
COc1ccc(C(=O)Nc2nc3nc(C)c(Cc4ccccc4)c(=O)n3[nH]2)cc1OC -12.6%
Cc1ccc(CNC(=O)COCc2cc(-c3cccs3)on2)cc1 6.97%
CCOc1ccc(CNC(=O)C2CCN(S(=O)(=O)N3CCC(C)CC3)CC2)cc1OC 4.99%
CC1=C(C(=O)Nc2cccnc2)C(c2cccc(Br)c2)n2nc(SCc3ccccc3)nc2N1 (stereo unspecified) -1.12%
Cc1cccc(CNS(=O)(=O)c2ccc(-c3cnc(C4CC4)o3)cc2)c1 14.3%
CCCc1cc(=O)n2[nH]c(NC(=O)c3ccc(C(C)(C)C)cc3)nc2n1 2.46%
CC(=O)c1cccc(NC(=O)CN2C=NS(=O)(=O)c3ccc(C)cc32)c1 -2.04%
